# Source: the RNAGym collection of RNA variant scans (doi:10.1073/pnas.2313332121)
# Variants at the background level are over-represented here.
# B1: TPR 5TU (parent)
# chain: GGAUCUUCUCGAUCUAACAAAAAAGACAAAUCUGCCACAAAGCUUGAGAGCAUCUUCGGAUGCAGAGGCGGCAGCCUUCGGUGGCGCGAUAGCGCCAACGUUCUCAACUAUGACACGCAAAACGCGUGCUCCGUUGAAUGGAGUUUAUCAUG
# Variants of: B1
# Assay: polymerase ribozyme fitness, log enrichment relative to wild type (log ratio); higher = more active; in vitro selection for triplet polymerase activity
# Summary of the method: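 To select mutant libraries of each subunit of a heterodimeric triplet polymerase ribozyme, built by PCR and transcribed, each was annealed with a biotinylated primer, partner subunit and triplets, then incubated frozen at −7 °C. Extended constructs were gel-excised, captured on streptavidin beads and amplified by RT-PCR, in one round carried out in triplicate. Illumina sequencing of input and output libraries kept genotypes with ≥10 input reads and ≥1 read per output. Fitness is the base-2 logarithm of genotype enrichment relative to wild-type enrichment, from inverse-variance-weighted replicate averages.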
row,Variant,polymerase ribozyme fitness (log ratio)
1,A22U A47U U53G U55A C57U G68A G86C G143A,≤ -4.2
2,A22U C123G,-0.0344
3,A22U A39G A40U G68U G86A C96U A107U C116G,≤ -4.2
4,A22U A41U,0.0369
5,A22G G25U A30U G50A C57A G70C C93G A113C,≤ -4.2
6,A22U A24C G34C U55A U56G C96U,≤ -4.2
7,A23C C32A G48U C75A A91C G92A C95A C99U U130A G133A,≤ -4.2
8,A22U G34A U77A C95U G124A C149A,≤ -4.2
9,A23C A97G A115C,≤ -4.2
10,A22U A26U,-2.88
11,A22G U33C C35U A66C,≤ -4.2
12,A22U G58C A66U C76U G86A A113G,≤ -4.2
13,A23C C57U G74C G92U U102A A115C G143C U151A,≤ -4.2
14,A22C C96U C108U A113U U146A U151G,≤ -4.2
15,A23C A24U C35U G50A C95U G143A,≤ -4.2
16,A23C C35A C57U C87G U146A,≤ -4.2
17,A22G C36A A119G,≤ -4.2
18,A22U C51U A137G A147C,-2.48
19,A22U A24C A40U U55A C85A G117C G136U A138C,≤ -4.2
20,A22C U33A G50A A66U C93U G100C A138G C149A,≤ -4.2
21,A22U C54U A60C C85G G143C,≤ -4.2

row,Variant,polymerase ribozyme fitness (log ratio)
1,A23C C79A C103U A138G G143C,≤ -4.2
2,A22G U33A U55G G58C C79G A97G U134A,≤ -4.2
3,A22U C54U U56C A73G G94U U127A G140U,≤ -4.2
4,A22U C51A G86A C131U U134A,≤ -4.2
5,A22U G50U C72A A91U C114A,≤ -4.2
6,A22U A66C C79G G80A G84U C85A G124A,≤ -4.2
7,A22U A39U A52U G67U C95U C118U C125A A142G,≤ -4.2
8,A22U G50C C76U G81A U135C A138G,≤ -4.2
9,A22G C35G U56A G74C C108A U146G,≤ -4.2
10,A22U A97G,0.0508
11,A22U G92C C93U A119G,-3.96
12,A22U C35U A41C U53C U148G,≤ -4.2
13,A22U C35G G94C U101C A115C,≤ -4.2
14,A22U G143C,-1.09
15,A22C U61A C76A U78C C87A A147C,≤ -4.2
16,A22G U33G A91G G92A G117A,≤ -4.2
17,A22U C43U A66G G68A G83A G84U,≤ -4.2
18,A22C G42U A73U G81C A91U C96U A107G G143C,≤ -4.2
19,A22C U56A C57G G86U A142G,-3.37
20,A22C C85G C129A U145C,≤ -4.2
21,A22U A52C G58C G84U C99A,≤ -4.2

row,Variant,polymerase ribozyme fitness (log ratio)
1,A22U G25A G94C C96U G126A A137C,≤ -4.2
2,A22U A29U A40U G42C C43G C87A G140U,≤ -4.2
3,A23C C27U C43U G80A C93U G133A U148C,≤ -4.2
4,A22U C27G G42A C87U U130G,≤ -4.2
5,A22G U56A G84U C103A,≤ -4.2
6,A22U C57G U90A A91U G92A,≤ -4.2
7,A23C C36U A60C G86A A121U,≤ -4.2
8,A22U G94A,-0.557
9,A22G U56A A66U G88C C95G C118A U139A,≤ -4.2
10,A23C A39C C51U C99A,≤ -4.2
11,A22U C96U C118U,-0.15
12,A23C C51A A113C A115C C116A,≤ -4.2
13,A22G G86U G94C,≤ -4.2
14,A22U C79G U102G A110U,≤ -4.2
15,A22U A28G,-3.35
16,A22U A60G A89G C95G G117A G143U,≤ -4.2
17,A22U C32A G48U G71U C87G G88C U148G,≤ -4.2
18,A22U U127A,-3.54
19,A22U G50U C54U A66C A91G G92U A138G,≤ -4.2
20,A22U A52G U56A G71C G83U A122U,≤ -4.2
21,A23C C27U A29G C87U A110G,≤ -4.2

row,Variant,polymerase ribozyme fitness (log ratio)
1,A22U U56A G84A G136C,-3.75
2,A22C U53G G62A C63U C87A A122G,≤ -4.2
3,A22U A26G A28C A37U U56A C96U A98U,≤ -4.2
4,A22G G65A A97U,-2.68
5,A22U A37C G83C C114G,-3.92
6,A23C G25U C32A G50U C85G A113G U130A,≤ -4.2
7,A22U C57U G70A G81C G83C G100C A106C G133C,≤ -4.2
8,A22U C27G G50C G58C A97G C103G A110U U139A,≤ -4.2
9,A22G A29U G50A U56G C87U C118U,≤ -4.2
10,A22G U144C,0.51
11,A22U G50U C96A G136C A142G,≤ -4.2
12,A22G A40C A66C C96G C103G,≤ -4.2
13,A22U G48U A49U G74C C76A G100A G133U,≤ -4.2
14,A22G C27A A29G C38U G50C C72U G84A C118A,≤ -4.2
15,A22G U31C G94C,0.086
16,A22U C149U,0.0648
17,A22C G62A G80U U90A C116G G143U A150U,≤ -4.2
18,A22U A29U C85A,≤ -4.2
19,A22U U31G C54G C85U U146C,-0.611
20,A22U A26U U56A G74C U102G,≤ -4.2
